Consider 21 molecules from PMC12040169 (PLOS Biology, 2025).

The list shows a part of the results.

The subject of the test is T1, C. trachomatis L2/434/Bu expressing GFP (CTL2-GFP).
T1 construct: L2/434/Bu GFP intracellular growth in HeLa cells
More on the design: species or system HeLa; C. trachomatis total inclusion area by high-content imaging, normalised to DMSO. The conditions noted are these: total inclusion area; 28.5 h, 10 µM; inhibitor. The procedure, abridged:
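High-content images of fixed, Hoechst-stained infected cultures supply inclusion area and count (growth) plus nuclei number (viability), complementing bulk GFP/resorufin fluorescence. MIC determination is unchanged from the primary assay.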
For the molecule `COc1ccc(-c2nc(NC(=O)COc3ccc(C)c4c3CCC4)cnc2-c2ccc(F)cc2)cc1` [CBK036990], the “% of control remaining” value was found to be 118.948.

Turning to `CCOc1cccc(N2C(=O)c3cc(Br)ccc3NC2c2ccc(OC)c(OC)c2)c1` (stereo not drawn) [CBK074502], the “% of control remaining” value amounted to 95.2586.

Turning to `COc1ccc(CN2CCN(C(=O)c3ccccc3F)CC2)cc1OCc1ccccc1` [CBK263479], the “% of control remaining” value is given as 110.759.

Regarding `CC(=O)N1CC[C@H]2NC(=O)CNC(=O)C3(CCCC[C@H]2C1)CCN(C(=O)COc1ccccc1)CC3` [CBK292101], the “% of control remaining” value stood at 96.8554.

Take `O=C(O)c1cc(NC(=O)c2ccco2)cc(NC(=O)c2ccco2)c1` [CBK263388]: the “% of control remaining” value was determined as 108.631.

On to `CCOc1ccc(NC(=O)C(C)O)c(NS(=O)(=O)c2ccc3ccccc3c2)c1` (stereo not drawn) [CBK268309], for which the “% of control remaining” value was determined as 89.1024.

For `CC1(CCc2ccccc2)NC(=O)N(CC(=O)c2ccc(-c3ccccc3)cc2)C1=O` (stereo not drawn) [CBK297114], the “% of control remaining” value was 96.9133.

Take `CCCn1c(SCC(=O)N2CCN(C(=O)c3cccs3)CC2)n[nH]c1=O` [CBK297109]: the “% of control remaining” value stood at 90.8842.

In the case of `CS(=O)(=O)NCC(=O)N1CCC2(CCCCOc3ccccc3C(=O)NCCNC2=O)CC1` [CBK292123], the “% of control remaining” value was 95.9126.

With `COc1ccc(C(C)C)cc1-c1nc(NS(C)(=O)=O)cc2ccccc12` [CBK073779], the “% of control remaining” value amounted to 111.27.

With `Cc1cccc(C(C)(C)C)c1OCCCCNCCN` [CBK265092G], the “% of control remaining” value stood at 73.0694.

As for `O=C(CSc1ccc2nnc(-c3ccccc3)n2n1)NCC1CCCO1` (stereo not drawn) [CBK287515], the “% of control remaining” value amounted to 85.9368.

For the molecule `O=C(c1cccnc1)C1CCN(C(=O)CC2CC3CCC2C3)CC1` (stereo not drawn) [CBK283530], the “% of control remaining” value is reported as 96.1332.

Consider `CCOc1cc(OCC)cc(C(=O)N2CCC3(CC2)CC(=O)c2ccc(N)cc2O3)c1` [CBK168018], for which the “% of control remaining” value was 10.3876.

Turning to `O=C(O)CC1S/C(=N/N=C/c2cn(Cc3ccccc3)c3ccccc23)NC1=O` (stereo not drawn) [CBK264466], the “% of control remaining” value came to 111.19.

`Cc1nn(CCC#N)c(C)c1CCC(=O)NCc1ccccn1` [CBK305693]: the “% of control remaining” value turned out to be 88.46.

Turning to `COc1cc(OC)c2c(c1)OC1(CCN(C(=O)c3cnc(C)cn3)CC1)CC2=O` [CBK156503], the “% of control remaining” value is recorded as 100.975.

With `O=C(NC(=S)N1CCN(c2ccc([N+](=O)[O-])c(N3CCOCC3)c2)CC1)c1cc2ccccc2o1` [CBK268335], the “% of control remaining” value is listed as 112.811.

As for `CCN(CC)C(=O)[C@@H]1CCCN1c1nc(O)cc(C(F)(F)F)n1` [CBK002867], the “% of control remaining” value came out at 96.5894.

On to `O=C(O)Cc1sc(Nc2ccccc2)nc1-c1ccccc1` [CBK286775], for which the “% of control remaining” value turned out to be 58.6318.

For `O=C(Cc1ccccc1)N1CCN(C(=O)c2ccco2)CC1` [CBK068325], the “% of control remaining” value stood at 110.875.
